Publication PMC8121856
These are yes or no findings as the source states them, for the method shown. For part of these data: Binding seen in cells or lysates may run through a third protein. Some results given as binding are weak or reduced against the parent protein; the word gives no strength. Tags and fused reporters may be left off the sequences shown.

Key:
[1] = biological target: T1, SHCBP1 bait (Gal4 DNA-binding domain fusion, pGBKT7) (human) (UniProt Q8NEM2); assay: two-hybrid; Matchmaker system (Clontech); baits in pGBKT7, preys in pACT2; growth on -Ade/-His/-Leu/-Trp
T1 sequence: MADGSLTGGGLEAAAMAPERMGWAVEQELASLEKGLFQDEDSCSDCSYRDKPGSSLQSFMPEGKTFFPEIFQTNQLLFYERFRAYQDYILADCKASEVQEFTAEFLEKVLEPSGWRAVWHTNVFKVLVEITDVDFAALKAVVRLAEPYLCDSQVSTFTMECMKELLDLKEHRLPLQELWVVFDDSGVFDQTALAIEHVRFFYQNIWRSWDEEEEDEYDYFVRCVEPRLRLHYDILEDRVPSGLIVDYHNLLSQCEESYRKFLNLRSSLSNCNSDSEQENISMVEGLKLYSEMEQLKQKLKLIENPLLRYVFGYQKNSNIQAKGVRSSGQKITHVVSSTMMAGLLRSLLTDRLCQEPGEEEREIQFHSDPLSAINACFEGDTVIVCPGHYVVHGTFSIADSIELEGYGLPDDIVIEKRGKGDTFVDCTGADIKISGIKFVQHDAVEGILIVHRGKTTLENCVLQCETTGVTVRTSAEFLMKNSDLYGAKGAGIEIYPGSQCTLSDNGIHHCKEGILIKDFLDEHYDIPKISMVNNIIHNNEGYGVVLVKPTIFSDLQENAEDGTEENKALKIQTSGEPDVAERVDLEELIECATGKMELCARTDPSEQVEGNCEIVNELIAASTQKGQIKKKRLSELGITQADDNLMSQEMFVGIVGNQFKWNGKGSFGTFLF

Flag-MISP (human) = biological target: T2, Flag-MISP (human) (UniProt Q8IVT2); assay: co-IP; Flag-MISP and HA-PLK1 in SNU-216 shCtrl or SHCBP1 knockdown cells; anti-Flag M2 agarose
T2 sequence: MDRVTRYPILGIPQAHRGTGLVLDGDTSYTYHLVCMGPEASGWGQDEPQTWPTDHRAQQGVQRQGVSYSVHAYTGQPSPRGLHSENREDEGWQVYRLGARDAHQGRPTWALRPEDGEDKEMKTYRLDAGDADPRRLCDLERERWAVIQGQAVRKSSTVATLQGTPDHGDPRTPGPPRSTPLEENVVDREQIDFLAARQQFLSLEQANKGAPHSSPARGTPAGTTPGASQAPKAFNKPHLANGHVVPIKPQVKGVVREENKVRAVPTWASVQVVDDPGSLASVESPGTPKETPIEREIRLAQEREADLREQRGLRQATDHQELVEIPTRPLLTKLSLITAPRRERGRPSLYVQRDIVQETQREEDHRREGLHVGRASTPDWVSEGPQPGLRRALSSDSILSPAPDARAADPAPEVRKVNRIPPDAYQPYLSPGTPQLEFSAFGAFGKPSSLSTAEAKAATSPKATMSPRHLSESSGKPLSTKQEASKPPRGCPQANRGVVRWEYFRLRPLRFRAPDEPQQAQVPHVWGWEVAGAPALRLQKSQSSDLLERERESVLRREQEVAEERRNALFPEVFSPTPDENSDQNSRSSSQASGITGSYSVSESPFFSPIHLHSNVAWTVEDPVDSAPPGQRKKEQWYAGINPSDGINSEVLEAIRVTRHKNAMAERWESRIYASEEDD

[2] = biological target: T3, Flag or HA-tagged SHCBP1 (co-expressed for co-immunoprecipitation) (human) (UniProt Q8NEM2); assay: co-IP; SHCBP1 and PLK1, their deletion mutants, domains and point mutants (Fig. 6a, b, e, f); cells not given; anti-Flag M2 agarose; also after TFBG at increasing concentrations
T3 sequence: T1 sequence

[3] = biological target: T4, MISP bait (Gal4 DNA-binding domain fusion, pGBKT7) (human) (UniProt Q8IVT2); assay: two-hybrid; Matchmaker system (Clontech); baits in pGBKT7, preys in pACT2; growth on -Ade/-His/-Leu/-Trp
T4 sequence: T2 sequence

eCFP-Shc1 = biological target: T5, eCFP-Shc1 (UniProt P29353); assay: FRET or BRET; acceptor photobleaching FRET of eCFP-Shc1 and eYFP-SHCBP1 in transfected cells; 100 ng/mL EGF for the indicated times and/or trastuzumab
T5 sequence: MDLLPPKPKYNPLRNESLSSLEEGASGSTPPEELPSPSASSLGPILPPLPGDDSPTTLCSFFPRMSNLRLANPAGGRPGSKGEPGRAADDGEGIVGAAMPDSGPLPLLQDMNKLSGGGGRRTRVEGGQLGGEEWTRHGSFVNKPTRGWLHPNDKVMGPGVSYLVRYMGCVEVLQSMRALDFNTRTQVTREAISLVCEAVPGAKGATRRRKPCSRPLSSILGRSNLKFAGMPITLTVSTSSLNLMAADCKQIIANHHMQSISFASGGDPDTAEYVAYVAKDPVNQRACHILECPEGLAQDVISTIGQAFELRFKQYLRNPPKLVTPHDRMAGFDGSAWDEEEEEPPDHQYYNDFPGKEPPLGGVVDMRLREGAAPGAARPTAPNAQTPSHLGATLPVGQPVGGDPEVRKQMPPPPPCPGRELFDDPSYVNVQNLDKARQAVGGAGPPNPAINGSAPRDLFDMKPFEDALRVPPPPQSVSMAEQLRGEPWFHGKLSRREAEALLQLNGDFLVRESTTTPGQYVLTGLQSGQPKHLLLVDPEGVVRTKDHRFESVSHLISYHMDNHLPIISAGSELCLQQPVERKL

[4] = biological target: Flag or HA-tagged PLK1 (co-expressed for co-immunoprecipitation) (UniProt P53350); assay: co-IP; Flag or HA-tagged SHCBP1, PLK1 and/or MISP co-expressed in HEK293T cells synchronised to the mitotic phase with 40 ng/mL nocodazole; anti-Flag M2 agarose
[5] = biological target: PLK1 expressed in E. coli for the GST pulldown (UniProt P53350); assay: pull-down; GST pulldown (Pierce GST protein interaction pulldown kit) with 6His-GST-SHCBP1 and PLK1 or MISP expressed in E. coli; Coomassie staining and immunoblotting; also with TFBG

polo-box domain (PBD) of PLK1 (yeast two-hybrid construct) (from UniProt P53350 367-603) (domain or fragment)
binding [1]: binds

HA-PLK1 (from UniProt P53350 1-603) (enzyme)
binding (Flag-MISP (human)): binds

kinase domain (KD) of PLK1 (co-immunoprecipitation construct) (from UniProt P53350 53-305) (domain or fragment)
binding [2]: no binding

polo-box domain (PBD) of PLK1 (co-immunoprecipitation construct) (from UniProt P53350 367-603) (domain or fragment)
binding [2]: binds

PLK1 prey (Gal4 activation domain fusion, pACT2) (from UniProt P53350 1-603) (enzyme)
binding [3]: binds

B1: eYFP-SHCBP1 (protein, UniProt Q8NEM2 1-672)
chain: T1 sequence
binding (eCFP-Shc1): binds

B2: Flag or HA-tagged MISP (co-expressed in HEK293T) (protein, UniProt Q8IVT2 1-679)
chain: T2 sequence
binding [4]: binds

B3: MISP expressed in E. coli for the GST pulldown (protein, UniProt Q8IVT2 1-679)
chain: T2 sequence
binding [5]: binds

B4: SHCBP1 prey (Gal4 activation domain fusion, pACT2) (protein, UniProt Q8NEM2 1-672)
chain: T1 sequence
binding [3]: no binding
